# The supplement of paper PMC7826260
# The list shows a part of the results. One pool of 16,384 single-stranded DNAs met each Rep nickase domain in vitro (1 h at 37 °C, 3 µM enzyme); the outer parts of the 90-letter strands are left off. Numbers give uncut DNA relative to the enzyme-free pool, as log2; the lower, the more was cut; hits are not called. Reads are scaled to the total; values above 0 arise when much of the pool is cut.
# Key:
# Assay in all cases: uncleaved DNA left, log2 of reads against the no-enzyme library (log2 ratio); higher = less cleavage (more negative = more Rep cleavage of the k-mer); sequences stand for … in CTCGTCCG…ACCGGAGA
# [1] = tested on: T1, Rep nickase domain of Muscovy duck circovirus
# T1 sequence (residues 1-111, tag not shown): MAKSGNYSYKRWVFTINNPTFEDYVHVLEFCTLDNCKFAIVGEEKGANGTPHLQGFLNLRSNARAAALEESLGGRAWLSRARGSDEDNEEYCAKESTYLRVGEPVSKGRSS
# Procedure: (§1)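 A pool of 90-nt single-stranded DNAs with seven random bases just before the constant AC of the nick site (name = the seven bases) was cut by 3 µM recombinant His6-SUMO-tagged Rep nickase domain (300 nM DNA, 50 mM HEPES pH 8.0, 50 mM NaCl, 1 mM MnCl2, 1 h, 37 °C, three replicates). Uncut DNA was amplified and sequenced.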
# [2] = tested on: T2, Rep nickase domain of banana bunchy top virus
# T2 sequence (residues 1-94, tag not shown): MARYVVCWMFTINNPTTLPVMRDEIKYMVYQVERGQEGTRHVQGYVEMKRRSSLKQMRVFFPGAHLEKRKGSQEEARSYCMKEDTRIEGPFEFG
# Procedure: as §1
# [3] = tested on: T3, Rep nickase domain of cabbage leaf curl virus
# T3 sequence (residues 1-116, tag not shown): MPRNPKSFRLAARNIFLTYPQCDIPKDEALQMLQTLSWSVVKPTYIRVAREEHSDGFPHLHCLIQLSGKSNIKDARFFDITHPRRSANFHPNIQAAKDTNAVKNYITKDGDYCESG
# Procedure: as §1
# [4] = tested on: T4, Rep nickase domain of chickpea chlorotic dwarf virus
# T4 sequence (residues 1-124, tag not shown): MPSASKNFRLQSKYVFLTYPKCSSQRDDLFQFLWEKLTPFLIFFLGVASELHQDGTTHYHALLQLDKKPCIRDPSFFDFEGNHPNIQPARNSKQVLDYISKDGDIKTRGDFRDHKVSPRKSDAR
# Procedure: as §1
# [5] = tested on: T5, Rep nickase domain of faba bean necrotic yellows virus
# T5 sequence (residues 1-98, tag not shown): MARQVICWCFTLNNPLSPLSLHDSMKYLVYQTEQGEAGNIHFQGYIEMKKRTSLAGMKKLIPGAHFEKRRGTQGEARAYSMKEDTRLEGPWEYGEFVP
# Procedure: as §1
# [6] = tested on: T6, Rep nickase domain of maize striate mosaic virus
# T6 sequence (residues 1-117, tag not shown): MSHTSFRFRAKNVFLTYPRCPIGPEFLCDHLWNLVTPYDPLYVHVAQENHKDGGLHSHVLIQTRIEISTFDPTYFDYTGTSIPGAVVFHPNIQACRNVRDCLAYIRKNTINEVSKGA
# Procedure: as §1
# [7] = tested on: T7, Rep nickase domain of porcine circovirus 2
# T7 sequence (residues 2-116, tag not shown): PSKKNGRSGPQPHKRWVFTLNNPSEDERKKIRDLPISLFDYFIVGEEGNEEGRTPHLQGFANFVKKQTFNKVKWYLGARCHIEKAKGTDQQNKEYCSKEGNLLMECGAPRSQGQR
# Procedure: as §1
# [8] = tested on: T8, Rep nickase domain of tomato yellow leaf curl virus
# T8 sequence (residues 1-136, tag not shown): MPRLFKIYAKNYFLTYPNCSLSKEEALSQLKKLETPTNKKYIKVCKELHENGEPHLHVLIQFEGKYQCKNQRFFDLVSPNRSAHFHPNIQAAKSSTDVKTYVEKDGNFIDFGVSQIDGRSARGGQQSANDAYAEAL
# Procedure: as §1
# [9] = tested on: T9, Rep nickase domain of wheat dwarf virus
# T9 sequence (residues 1-137, tag not shown): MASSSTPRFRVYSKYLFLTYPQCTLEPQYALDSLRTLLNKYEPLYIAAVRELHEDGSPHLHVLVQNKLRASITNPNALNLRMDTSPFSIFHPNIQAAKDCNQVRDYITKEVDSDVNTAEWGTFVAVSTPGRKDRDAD
# Procedure: as §1
Sequence,uncleaved DNA left (log2) [1],uncleaved DNA left (log2) [2],uncleaved DNA left (log2) [3],uncleaved DNA left (log2) [4],uncleaved DNA left (log2) [5],uncleaved DNA left (log2) [6],uncleaved DNA left (log2) [7],uncleaved DNA left (log2) [8],uncleaved DNA left (log2) [9]
ACGAGGC,0.0111,0.063,-0.275,-0.112,0.038,-0.955,0.182,0.0919,-0.034
CAGTTCC,0.126,0.0456,0.23,0.0486,0.115,0.312,-2.58,0.212,0.126
TTGCATG,0.0833,0.142,-0.73,-0.281,0.198,-0.968,0.215,0.196,0.0201
CGCCACT,-0.0606,0.0131,-0.0208,-1.36,0.105,-0.0848,-0.21,-0.0175,0.0193
CAATGCG,-0.00305,-0.0411,-0.18,1.29,0.105,0.782,0.145,0.0609,-0.0421
GCCATTA,-0.0886,0.0386,0.023,-0.0221,-0.274,-0.303,0.0649,0.108,-0.00725
CTACAGG,-0.1,0.0705,0.142,0.613,0.0256,0.355,0.0589,-0.0499,-0.0706
AGATTTA,-0.123,0.0301,0.117,-1.03,0.0695,-0.048,-0.583,0.028,0.0546
TTTATCT,-0.0947,0.0775,0.0838,-1.75,0.0135,-0.141,-0.637,0.0965,0.0548
CCTAATG,-0.205,-0.0565,-0.742,-0.588,0.0106,-1.19,0.0614,-0.0239,-0.0313
GATGACT,0.231,0.0899,0.427,0.399,0.0187,1.61,0.172,0.152,0.241
CAGCTGT,0.0691,0.0754,0.346,1.49,0.175,1.65,-0.0357,-0.101,-0.0406
TACATTC,0.0567,0.104,-0.0657,-0.428,0.0379,-0.665,0.202,0.0913,0.0915
TTGTGAG,0.0628,0.000818,-0.944,-0.671,-0.00573,-1.28,0.179,0.0224,-0.193
ATGATGT,-0.0302,-0.107,-0.0833,-0.168,-0.0935,-0.606,-0.022,-0.27,-0.0522
CGTGAGG,0.112,0.145,0.432,1.08,0.186,0.81,0.189,-0.0458,0.0779
ATCCCCC,-0.198,-0.0373,-0.0666,-0.115,-0.181,-0.276,-0.139,-0.153,-0.111
CGGGATG,0.0321,0.0307,0.231,0.874,0.0084,1.12,0.0887,-0.0938,-0.0668
GTCCGAA,0.0695,0.2,0.479,0.977,0.123,1.66,0.107,0.201,0.255
ACTACTG,0.0132,0.0807,-0.217,-0.118,0.072,-0.288,0.148,-0.0421,0.0922
GATGCCC,-0.142,-0.0705,0.0202,0.342,-0.0939,0.167,-0.0721,0.0465,-0.102
GTGCCTG,-0.0972,-0.0603,-0.0306,0.479,-0.124,1.1,-0.0526,-0.165,-0.103
CTTATGA,-0.0268,0.107,0.0979,0.191,0.0725,-0.883,0.0762,0.162,0.0917
AGTAAAG,0.122,0.0745,-0.603,-0.424,0.092,-0.916,0.242,0.153,0.00319
AAATCCC,-0.048,-0.141,-2.62,-2.33,-0.06,-0.532,-0.427,-0.0821,-1
CACATAT,0.199,0.0409,-0.142,-1.79,0.00503,-0.676,-0.496,0.0108,0.125
AGATGAT,-0.0514,0.0464,0.277,1.08,0.0652,1.62,-1.25,-0.0581,-0.102
CACCACA,-0.0956,0.128,-0.208,-2.01,0.0213,-0.721,0.0256,0.0664,0.071
TCCGCGC,-0.00198,-0.147,-0.811,-0.247,-0.167,-0.687,-0.000225,-0.147,-0.313
CTTCCCT,-0.226,-0.236,-0.207,-2.13,-0.286,-0.628,-2.33,-0.108,-0.232
